These results are taken from publication PMC4336329 (PLoS ONE, 2015).

Screen size: about 310,000 compounds; about 2,200 (0.71%) showed an effect of 50% or more. Effects have a minus sign here. This is one part of the list.

Sequence of human ether-à-go-go-related gene (hERG) potassium channel (Q12809 whole entry, looked up): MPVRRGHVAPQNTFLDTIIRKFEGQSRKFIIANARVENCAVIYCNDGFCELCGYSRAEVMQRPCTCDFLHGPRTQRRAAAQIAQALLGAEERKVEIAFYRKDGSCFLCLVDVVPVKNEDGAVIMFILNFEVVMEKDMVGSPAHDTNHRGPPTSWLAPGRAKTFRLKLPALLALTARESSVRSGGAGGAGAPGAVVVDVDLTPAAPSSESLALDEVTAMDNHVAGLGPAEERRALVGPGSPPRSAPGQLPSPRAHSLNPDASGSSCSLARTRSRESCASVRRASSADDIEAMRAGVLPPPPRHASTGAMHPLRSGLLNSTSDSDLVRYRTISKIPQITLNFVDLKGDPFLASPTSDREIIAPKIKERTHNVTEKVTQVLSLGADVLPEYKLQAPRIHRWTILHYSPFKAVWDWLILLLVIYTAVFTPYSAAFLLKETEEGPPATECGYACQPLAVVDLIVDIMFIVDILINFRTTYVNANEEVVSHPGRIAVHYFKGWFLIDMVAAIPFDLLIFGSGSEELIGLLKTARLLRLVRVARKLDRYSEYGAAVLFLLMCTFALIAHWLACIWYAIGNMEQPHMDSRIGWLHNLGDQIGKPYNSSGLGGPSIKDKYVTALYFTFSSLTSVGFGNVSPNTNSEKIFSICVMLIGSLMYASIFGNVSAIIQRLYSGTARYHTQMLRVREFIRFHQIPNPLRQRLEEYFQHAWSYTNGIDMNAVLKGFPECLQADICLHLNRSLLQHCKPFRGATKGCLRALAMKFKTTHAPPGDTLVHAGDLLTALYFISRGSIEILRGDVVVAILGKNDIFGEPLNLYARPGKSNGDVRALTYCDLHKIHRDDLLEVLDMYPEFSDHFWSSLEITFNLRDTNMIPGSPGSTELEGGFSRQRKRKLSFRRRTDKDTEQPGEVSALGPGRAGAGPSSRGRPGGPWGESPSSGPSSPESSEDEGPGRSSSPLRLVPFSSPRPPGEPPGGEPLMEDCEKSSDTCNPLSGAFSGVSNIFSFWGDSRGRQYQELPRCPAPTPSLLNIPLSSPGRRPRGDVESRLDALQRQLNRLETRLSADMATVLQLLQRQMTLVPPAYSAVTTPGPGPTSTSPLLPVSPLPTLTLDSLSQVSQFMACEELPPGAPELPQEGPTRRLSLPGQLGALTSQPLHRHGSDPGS

The assay addresses human ether-à-go-go-related gene (hERG) potassium channel (human, UniProt Q12809). Put plainly: primary screen, population patch clamp on CHO cells stably expressing hERG.
For `Cc1cc(C(=O)CN2CCCC2)c(C)n1-c1ccc(Cl)cc1`, the “hERG current change (%, negative = inhibition) at 1uM” value was 24.6%.

In the case of `O=C(Cn1ncc2c(=O)oc3ccccc3c21)NCCCN1CCCC1=O`, the “hERG current change (%, negative = inhibition) at 1uM” value came to 6.64%.

For the compound `COc1cc(Cl)c(C)cc1NC(=O)COC(=O)/C=C/c1c(C)nn(C2CCS(=O)(=O)C2)c1Cl` (stereo not shown), the “hERG current change (%, negative = inhibition) at 1uM” value came to 11.7%.

For the compound `COC(CNC(=O)c1ccc2c(c1)ncn2-c1cccc(C)c1)OC`, the “hERG current change (%, negative = inhibition) at 1uM” value stood at 8.64%.

Consider `CCCCCOc1ccc(CSC2=NCCN2)cc1[N+](=O)[O-]`, for which the “hERG current change (%, negative = inhibition) at 1uM” value is listed as -60%.

With `Cc1nn(Cc2ccc(Cl)cc2)c(C)c1NC(=O)C1CC=CCC1C(=O)O` (stereo not shown), the “hERG current change (%, negative = inhibition) at 1uM” value is listed as 10.1%.

As for `O=C(Nc1ccccc1-c1ccccc1)c1ccccc1[N+](=O)[O-]`, the “hERG current change (%, negative = inhibition) at 1uM” value is on record as 14.4%.

`N#CCC(=O)Nc1ccc(C(=O)OCC(=O)N2CCCC2=O)cc1`: the “hERG current change (%, negative = inhibition) at 1uM” value is 13.5%.

As for `CN(c1cccc(NC(=O)CN(c2ccc(Cl)c(Cl)c2)S(=O)(=O)c2ccccc2)c1)S(C)(=O)=O`, the “hERG current change (%, negative = inhibition) at 1uM” value amounted to 3.57%.

On to `CC1=CC(C)(C)NC(=S)N1c1cccc2ccccc12`, for which the “hERG current change (%, negative = inhibition) at 1uM” value is reported as 13.7%.

`COCCCNC(=O)C(C)N1c2cccc3cccc(c23)S1(=O)=O` (stereo not shown): the “hERG current change (%, negative = inhibition) at 1uM” value is 14%.

As to `CCc1ccc(NC(=O)CSc2nnc(CC)c(CC)n2)cc1`, the “hERG current change (%, negative = inhibition) at 1uM” value is on record as -11.6%.

For `S=c1[nH]nc(Cn2cnc3ccccc32)n1-c1ccccc1Cl`, the “hERG current change (%, negative = inhibition) at 1uM” value stood at 12.8%.

As for `COc1ccc(C2CC2/C(C)=N/OC(=O)c2ccc(F)cc2)cc1` (stereo not shown), the “hERG current change (%, negative = inhibition) at 1uM” value was 9.09%.

On to `O=C(COC(=O)c1ccco1)NCCc1ccc(Cl)cc1`, for which the “hERG current change (%, negative = inhibition) at 1uM” value was -2.34%.

In the case of `COc1ccc(C2=NN(CCC(=O)NCc3ccc4c(c3)OCO4)C(=O)CC2)cc1`, the “hERG current change (%, negative = inhibition) at 1uM” value came out at 13.3%.

Consider `O=C(CSc1nnc(NC(=O)c2cccc(F)c2)s1)NC1CC1`, for which the “hERG current change (%, negative = inhibition) at 1uM” value is 15.3%.

`COc1ccc2cc(C(=O)C3CCCN(C(=O)c4cncs4)C3)ccc2c1` (stereo not shown): the “hERG current change (%, negative = inhibition) at 1uM” value stood at 9.26%.

As for `COc1ccccc1CCNS(=O)(=O)CCNC(=O)c1ccc2c(c1)OCO2`, the “hERG current change (%, negative = inhibition) at 1uM” value came out at 11.7%.

For `COc1cc(C2c3c(-c4cc(C)cc(C)c4O)n[nH]c3C(=O)N2CCCO)cc(OC)c1OC` (stereo not shown), the “hERG current change (%, negative = inhibition) at 1uM” value came out at 4.34%.

`O=C(O)c1ccc(OCC(F)(F)F)nc1`: the “hERG current change (%, negative = inhibition) at 1uM” value was found to be 12.9%.

For the compound `O=C(/C=C/c1ccccc1)NCCCNC(=O)/C=C/c1ccccc1`, the “hERG current change (%, negative = inhibition) at 1uM” value came to 8.48%.

`CCOC(=O)C1=C(CS(=O)(=O)c2ccc(F)c(C)c2)NC(=O)NC1c1ccc(O)c(O)c1` (stereo not shown): the “hERG current change (%, negative = inhibition) at 1uM” value was 7.8%.

As to `Cc1cc(C(=O)N/N=C/c2ccncc2)c(C)o1`, the “hERG current change (%, negative = inhibition) at 1uM” value stood at 17%.

Turning to `CCc1ccc(CNC(=O)c2nn(C)c3c2CS(=O)(=O)c2ccccc2-3)cc1`, the “hERG current change (%, negative = inhibition) at 1uM” value is 8.78%.

Consider `COc1cc(NC(=O)Cn2cnc3sc(C)c(S(=O)(=O)N4CCN(C)CC4)c3c2=O)cc(OC)c1OC`, for which the “hERG current change (%, negative = inhibition) at 1uM” value is on record as 8.88%.

As to `CC(=O)N1CCC(C(=O)Nc2nc(-c3ccccc3)ns2)CC1`, the “hERG current change (%, negative = inhibition) at 1uM” value is given as 1.53%.

As for `Cc1cccc(CN2CCN(C(=O)CN(C)C(C)C(=O)Nc3ccc(C(N)=O)cc3)CC2)c1` (stereo not shown), the “hERG current change (%, negative = inhibition) at 1uM” value worked out at 17.8%.

For `O=C(NNC(=O)c1ccccc1Br)c1ccc(Cl)cc1`, the “hERG current change (%, negative = inhibition) at 1uM” value is -6.66%.

`CCN1/C(=C/C(=S)Nc2ccccc2)Sc2ccccc21`: the “hERG current change (%, negative = inhibition) at 1uM” value worked out at 16.3%.

For the compound `Cn1c(CNc2ccc(F)cc2)nnc1SCC(=O)NNC(=O)Cc1ccccc1`, the “hERG current change (%, negative = inhibition) at 1uM” value is listed as 13%.

For `O=C(C(NS(=O)(=O)c1cccc2nsnc12)c1ccccc1)N1CCN(c2ccccc2)CC1` (stereo not shown), the “hERG current change (%, negative = inhibition) at 1uM” value is -5.63%.

With `CCOc1cc([N+](=O)[O-])cc2c1C(=O)Nc1ccccc1O2`, the “hERG current change (%, negative = inhibition) at 1uM” value is given as 10.3%.

Take `COc1ccc(N2CCN(C(=O)c3ccccc3N(C)S(=O)(=O)c3ccc(C)cc3)CC2)cc1`: the “hERG current change (%, negative = inhibition) at 1uM” value amounted to 7.67%.

`COc1ccc(OC)c(C2C(C(=O)c3cccs3)=C(O)C(=O)N2CCN2CCOCC2)c1` (stereo not shown): the “hERG current change (%, negative = inhibition) at 1uM” value worked out at 14.2%.

With `COCCCN(Cc1cccs1)S(=O)(=O)c1c[nH]c(C(=O)OC)c1`, the “hERG current change (%, negative = inhibition) at 1uM” value was 17.6%.

Regarding `Cc1c(S(=O)(=O)N2CCN(C(c3ccccc3)c3ccccc3)CC2)c(=O)n(C)c(=O)n1C`, the “hERG current change (%, negative = inhibition) at 1uM” value was found to be 3.78%.

With `Cc1onc(-c2ccccc2Cl)c1C(=O)NC1CCCCCC1`, the “hERG current change (%, negative = inhibition) at 1uM” value turned out to be 11.1%.

Regarding `COc1cc2[nH]c(=S)n(Cc3ccccc3)c(=O)c2cc1OC`, the “hERG current change (%, negative = inhibition) at 1uM” value is recorded as 9.13%.

As to `Cc1cccc(C(=O)NC(=S)Nc2ccc(S(=O)(=O)N3CCN(C)CC3)cc2)c1`, the “hERG current change (%, negative = inhibition) at 1uM” value was 8.98%.

Turning to `Cl.O=C(OCCN1CCOCC1)c1ccc2c(c1)OCCO2`, the “hERG current change (%, negative = inhibition) at 1uM” value is 8.19%.

Take `Cc1nnc(SCC(=O)N(C(C)C)C(C)C)[nH]c1=O`: the “hERG current change (%, negative = inhibition) at 1uM” value was 6.48%.

`Cc1ccc(C)c(NC(=O)NC2CCCCCCC2)c1`: the “hERG current change (%, negative = inhibition) at 1uM” value was -5.57%.
